# Laboratory results as given in the supplement of paper PMC7826260.
# The other results are listed elsewhere or left out. Each Rep nickase domain was tested in vitro on the same pool of single strands at 3 µM enzyme and 37 °C for 1 h; the strands have 90 letters, of which the middle is given. Uncut reads are compared with the no-enzyme pool on a log2 scale; uncut sequences lie near 0, cut ones below; no hit call is given. Because reads are shares of a total, they shift together; where an enzyme cuts many sequences, the uncut ones exceed 0.
# Tested on: T1, Rep nickase domain of tomato golden mosaic virus
# T1 sequence (residues 1-124, tag not shown): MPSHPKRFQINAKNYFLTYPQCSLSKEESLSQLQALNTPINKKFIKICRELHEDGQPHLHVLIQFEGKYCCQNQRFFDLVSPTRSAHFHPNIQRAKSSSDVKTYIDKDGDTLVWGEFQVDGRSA
# Test: uncleaved DNA left, log2 of reads against the no-enzyme library (log2 ratio); higher = less cleavage (more negative = more Rep cleavage of the k-mer); sequences stand for … in CTCGTCCG…ACCGGAGA
# Description: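 A pool of 90-nt single-stranded DNAs with seven random bases just before the constant AC of the nick site (name = the seven bases) was cut by 3 µM recombinant His6-SUMO-tagged Rep nickase domain (300 nM DNA, 50 mM HEPES pH 8.0, 50 mM NaCl, 1 mM MnCl2, 1 h, 37 °C, three replicates). Uncut DNA was amplified and sequenced.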
row,Sequence,uncleaved DNA left (log2)
1,CCCGAAT,0.167
2,TCAACGA,-0.0173
3,GGTCCGT,0.00162
4,ATCGCAT,-0.00403
5,TTAAAAG,-0.0426
6,TTAAGCG,-0.0481
7,AGAGAGG,0.093
8,CCACGTG,0.0964
9,CATTACC,-0.0131
10,TAGATGA,0.0917
11,ACACATA,0.00997
12,ACCACAT,0.0745
13,CTCCTGT,-0.214
14,TAAAAGC,0.0285
15,TTTCTAC,0.0251
16,CGAGTTT,-0.0282
17,AGGAGTA,0.0285
18,GGTATGT,-0.0335
19,TGAGAAA,0.226
20,CTCAAAG,-0.0938

row,Sequence,uncleaved DNA left (log2)
1,TTTACCG,-0.0794
2,GTACTGA,0.114
3,TCGGCGA,-0.0597
4,AGAGGTT,0.0682
5,GTATTAG,-0.0372
6,GGGTCGT,-0.0493
7,AAACCTC,0.0543
8,TCTTAGT,0.0972
9,AGCACGT,0.0138
10,TAGACGA,-0.0679
11,AGCTAGG,0.189
12,AGACTCG,0.08
13,TCCTGCC,-0.174
14,GGCCTAG,0.142
15,TCTCCAT,-0.0726
16,AAGCGTC,-0.0435
17,AGTCGAA,-0.0644
18,CAAGATC,-0.0314
19,GGGTGTG,0.119
20,GCGTTTT,-0.159
